Data as given in article PMC9450144.
These are yes or no findings as the source states them, for the method shown. For part of these data: Binding seen in cells or lysates may run through a third protein. Some binding calls cover weakened binding; strength is not graded here. For part of these data: Tags and fused reporters may be left off the sequences shown.

Chains of the proteins cited; added tags and fusions are not shown. Lines headed by an entry give the natural chain unless they say otherwise; changes in a name come on top. A line that says so, or that is headed by a name, gives the form on record, which may keep a tag or linker. Residues count along the entry.
UniProt P28799: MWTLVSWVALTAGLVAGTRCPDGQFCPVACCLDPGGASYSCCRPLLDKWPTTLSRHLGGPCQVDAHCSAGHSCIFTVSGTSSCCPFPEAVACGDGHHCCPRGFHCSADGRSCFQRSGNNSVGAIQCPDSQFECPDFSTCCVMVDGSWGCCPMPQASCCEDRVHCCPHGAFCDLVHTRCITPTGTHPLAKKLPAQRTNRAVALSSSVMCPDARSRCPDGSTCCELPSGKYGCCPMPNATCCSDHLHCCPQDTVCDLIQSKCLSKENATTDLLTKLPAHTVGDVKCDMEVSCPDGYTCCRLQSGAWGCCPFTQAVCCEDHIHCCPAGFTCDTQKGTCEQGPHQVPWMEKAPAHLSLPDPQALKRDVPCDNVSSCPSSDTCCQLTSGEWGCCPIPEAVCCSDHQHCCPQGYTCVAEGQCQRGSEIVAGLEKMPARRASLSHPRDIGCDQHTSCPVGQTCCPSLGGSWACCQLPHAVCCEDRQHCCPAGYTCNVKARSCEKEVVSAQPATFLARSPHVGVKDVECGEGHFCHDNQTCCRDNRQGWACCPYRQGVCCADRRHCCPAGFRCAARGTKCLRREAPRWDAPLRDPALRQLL
FLAG-tagged PGRNΔE (amino acids 17–492): residues 17-492 of P28799
GFP-tagged granulin E: residues 518-573 of P28799

Tests used:
[1] = molecular target: T1, Myc-His-tagged CD68 (human) (UniProt P34810); assay: co-IP; HEK293T cells co-expressing Myc-tagged CD68 constructs and GFP-tagged PGRN; lysates immunoprecipitated with anti-Myc-conjugated beads; Western blot
T1 sequence: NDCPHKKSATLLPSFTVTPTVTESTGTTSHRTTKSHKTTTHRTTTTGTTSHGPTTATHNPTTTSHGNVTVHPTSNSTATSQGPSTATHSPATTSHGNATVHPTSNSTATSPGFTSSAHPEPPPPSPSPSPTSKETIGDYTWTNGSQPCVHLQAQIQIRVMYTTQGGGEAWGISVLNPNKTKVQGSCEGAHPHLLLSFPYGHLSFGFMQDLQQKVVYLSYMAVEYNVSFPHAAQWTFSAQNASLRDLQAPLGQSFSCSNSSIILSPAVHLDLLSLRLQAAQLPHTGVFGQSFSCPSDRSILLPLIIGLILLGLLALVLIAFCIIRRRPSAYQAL

[2] = molecular target: T2, FL-CD68 (in COS-7 cells) (human) (UniProt P34810); assay: alkaline phosphatase (AP) fusion binding to transfected cells; COS-7 cells transfected with FL-CD68 or with the M + P or Lamp-D domain on the PDGFR transmembrane domain (pDisplay), incubated with AP-tagged PGRN or granulin E at 100 nM
T2 sequence: T1 sequence

[3] = molecular target: T3, CD68-GFP (in COS-7 cells) (human) (UniProt P34810); assay: alkaline phosphatase (AP) fusion binding to transfected cells; COS-7 cells transfected with CD68-GFP, incubated with conditioned media containing AP-tagged granulin peptides; HBH pH 6.4, 3 h at room temperature, AP substrate (NBT/BCIP) read by brightfield microscopy
T3 sequence: T1 sequence

[4] = molecular target: T4, GFP-tagged CD68 (in HEK293T cells) (human) (UniProt P34810); assay: pull-down; conditioned media containing FLAG-tagged PGRN incubated with beads bound to GFP or GFP-CD68; Western blot with anti-GFP and anti-FLAG; only the target purified
T4 sequence: T1 sequence

[5] = molecular target: T4, GFP-tagged CD68 (in HEK293T cells) (human); assay: co-IP; HEK293T cells co-transfected; lysates (150 mM NaCl, 50 mM Tris-HCl pH 7.5, 1% Triton X-100, 0.1% deoxycholic acid) incubated with anti-GFP-conjugated beads (GFP-Trap) 3 to 4 h at 4 °C; Western blot
GFP-tagged granulin E = GFP-tagged granulin E (UniProt P28799); assay: as above
FLAG-tagged PGRN = FLAG-tagged PGRN (UniProt P28799); assay: co-IP; HEK293T cells co-transfected with GFP-tagged CD68 and FLAG-tagged PGRN or PGRN-ΔE; lysates incubated with anti-FLAG-conjugated beads; Western blot
[6] = molecular target: FLAG-tagged PGRNΔE (amino acids 17–492) (UniProt P28799); assay: as above

GFP-tagged PGRN (from UniProt P28799 18-593) (ligand)
binding [1]: binds

AP-tagged granulin E (from UniProt P28799 518-573) (domain or fragment)
binding [2]: binds
binding [3]: binds

AP-tagged PGRN (from UniProt P28799 18-593) (ligand)
binding [2]: binds

FLAG-tagged PGRN (from UniProt P28799 18-593) (ligand)
binding [4]: binds
binding [5]: binds

B1: Myc-His-tagged CD68 (receptor, UniProt P34810 22-354)
chain: T1 sequence
binding (GFP-tagged granulin E): binds

B2: GFP-tagged CD68 (in HEK293T cells) (receptor, UniProt P34810 22-354)
chain: T1 sequence
binding (FLAG-tagged PGRN): binds
binding [6]: no binding
